Data: PubChem BioAssay AID894 (National Center for Advancing Translational Sciences (NCATS), 2007)
Where “and” joins values, the source holds several entries; their conditions need not be identical. Identical values can stand only once. Hit rate of the full screen: of about 150,000 compounds, about 6,500 (4.3%) were called active. This list was built around the results that the source calls inconclusive (neither active nor inactive); the mix of calls is not that of the screen. Calls come from the whole dose curve; as a rule, active = well fitted inhibition curve with a large enough effect (not every such curve was filed as active); inconclusive = small, poorly fitted or top-dose-only effect, or another doubt; inactive = no such curve, though single readings can be large or run the other way. Potencies of inconclusive entries are left out as doubtful fits.

Target: 15-hydroxyprostaglandin dehydrogenase [NAD(+)] (Homo sapiens) (UniProt P15428)
Test: qHTS Assay for Inhibitors of HPGD (15-Hydroxyprostaglandin Dehydrogenase)
Settings: purified HPGD, NADH fluorescence kinetic, PGE2 substrate; activity change, negative = inhibition: active compounds read low
How it was run: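 20 nM HPGD preincubated 15 min at room temperature with compound in 50 mM Tris-HCl pH 8, 0.01% Tween 20. Started with 1 mM NAD+ and 30 uM prostaglandin E2; NADH fluorescence (360/450 nm) read 5 times over 30-s intervals, last minus first.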
% is set by controls: 0 for no effect and ±100 for the full control effect; potency is the fitted concentration of half-maximal effect; tags give direction and shape of the fitted curve.

UniProt P15428, sequence (P15428 whole entry, looked up): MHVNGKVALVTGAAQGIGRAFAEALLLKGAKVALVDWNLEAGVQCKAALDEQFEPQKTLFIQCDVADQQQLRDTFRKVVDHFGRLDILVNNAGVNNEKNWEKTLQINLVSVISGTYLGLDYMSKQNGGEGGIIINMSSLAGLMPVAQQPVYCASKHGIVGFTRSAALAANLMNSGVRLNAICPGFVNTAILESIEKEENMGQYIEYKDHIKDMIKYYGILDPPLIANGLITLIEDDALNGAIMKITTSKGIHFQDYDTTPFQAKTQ

| Structure (SMILES) | Potency | activity change, negative = inhibition |
| --- | --- | --- |
| CC(C)(C)CC(=O)NCc1ccc(F)cc1 | active: 22.4 µM |  |
| COC(=O)c1ccc(NC(=S)NNC(=O)CC(C)C)cc1 | active: 28.2 µM |  |
| Cc1ccc(NC(=O)CN2C(=O)N/C(=C/c3cccn3-c3ccc(C(=O)O)cc3)C2=O)cc1 | active: 25.1 µM |  |
| S=c1[nH]cc(-c2ccc(Cl)cc2)n1-c1ccccc1 | inconclusive [inhibitor, full curve, poor fit] |  |
| Nc1nc(Sc2ccc(C(F)(F)F)cn2)n[nH]1 |  | inactive: -9.64% |
| N#C/C(=C/c1ccc(Sc2nc3ccccc3[nH]2)o1)c1cccc(Br)c1 | inconclusive [inhibitor, partial curve] |  |
| COn1c2c(c3c4nonc4ccc31)CCCC2 | inconclusive [inhibitor, partial curve, poor fit] |  |
| COc1ccccc1CNC(=O)c1ccc(Br)o1 | active: 39.8 µM |  |
| CC(=O)Oc1oc(-c2ccccc2)nc1C=Nc1ccccc1 | active: 15.8 µM |  |
| CC(C)Oc1ccc2c(=O)c3cc(C(=O)O)ccc3oc2c1 | inconclusive [inhibitor, partial curve] |  |
| CCCn1c(C)cc(C(=O)CN2C(=O)c3cccc(N)c3C2=O)c1C | inconclusive [inhibitor, single point] |  |
| COc1ccc(NC(=S)NNC(=O)COc2ccc(Cl)cc2Cl)cc1 | active: 4.47 µM |  |
| CC(C)O/C(=N\S(=O)(=O)c1ccc(Cl)cc1)c1ccccc1 |  | inactive: -8.58% |
| CC1(C)CC(=O)c2cc(OCC(=O)O)ccc2O1 | inconclusive [inhibitor, partial curve] |  |
| CCOCC(=O)Nc1c(C(=O)Nc2ccc(OC)cc2OC)oc2ccccc12 | inconclusive [inhibitor, partial curve] |  |
| CCN(CC)C(=O)CSc1nc2c(sc(=S)n2-c2ccccc2)c(=O)n1Cc1ccco1 | active: 31.6 µM |  |
| CS(=O)(=O)Nc1cccc(-c2ccc3ncnc(NCc4cccnc4)c3c2)c1 | active: 25.1 µM |  |
| CCC1CCCCN1C(=O)CSc1nnc(-c2cccs2)o1 (stereo not drawn) | inconclusive [inhibitor, partial curve] |  |
| CCn1cc(Cl)c(C(=O)N2N=C(c3ccc4ccccc4c3)CC2c2ccccc2O)n1 (stereo not drawn) | inconclusive [inhibitor, partial curve] |  |
| CSc1nc2ccc3nc(NC(=O)c4ccc(C)cc4)sc3c2s1 | inconclusive [inhibitor, partial curve] |  |
| CC(=O)Oc1ccc2cc(-c3nc4ccccc4n3C)c(=O)oc2c1 | inconclusive [inhibitor, partial curve] |  |
| CC(C)OCCCNC(=O)c1sc(=S)n(C)c1N | active: 28.2 µM |  |
| Cc1ccc(S(=O)(=O)CCC(=O)OC(C)C(=O)c2c(C)[nH]c3ccccc23)cc1 (stereo not drawn) |  | inactive: -2.66% |
| CC(C)Cn1c(-c2ccccc2F)n[nH]c1=S |  | inactive: -23.6% |
| CC(C)(C)c1cc2cccnc2n1Cc1cccc(Cl)c1 | inconclusive [inhibitor, partial curve] |  |

| Structure (SMILES) | Potency | activity change, negative = inhibition |
| --- | --- | --- |
| CCCN1C(=O)/C(=C\c2ccncc2)SC1=Nc1ccccc1 | active: 31.6 µM |  |
| c1ccc2c(c1)CCN(c1nc3ccccc3n3cnnc13)C2 | inconclusive [inhibitor, partial curve] |  |
| COc1cc2c(cc1NC(=O)CN1CCN(S(=O)(=O)c3ccc(F)cc3)CC1)oc1ccccc12 | inconclusive [inhibitor, partial curve] |  |
| Cc1ccc2nc3c(c(N)c2c1)CCN3c1ccccc1 | inconclusive [inhibitor, partial curve] |  |
| Oc1ccc(Br)cc1-c1cc(-c2ccc(Cl)cc2)n[nH]1 | inconclusive [inhibitor, single point] |  |
| C=CCOc1ccccc1OC[C@H](O)CNC(C)C |  | inactive: -5.9% |
| COc1cc2cc3c4c(cc(OC)c(OC)c4c2cc1OC)CCN3C | inconclusive [inhibitor, partial curve] |  |
| Cn1cccc1CC(=O)N/N=C/C=C/c1ccco1 | active: 15.8 µM |  |
| Cc1cccc(NS(=O)(=O)c2ccc(C3CCCCC3)cc2)n1 | inconclusive [inhibitor, single point] |  |
| Cc1cccnc1NC(=O)Nc1ccc(F)cc1 |  | inactive: -12.2% |
| Cc1nn(-c2ccccc2)c(N)c1N=Nc1ccccc1 | active: 20 µM |  |
| O=C(CSc1ccccn1)N1CCN(c2cccc(Cl)c2)CC1 | inconclusive [inhibitor, single point] |  |
| CC1CCN(C(=O)CSc2nnc(-c3ccc(S(=O)(=O)N4CCOCC4)cc3)n2C)CC1 | inconclusive [inhibitor, single point] |  |
| CCc1cc2c(N[C@@H](C)C(=O)O)ncnc2s1 | inconclusive [inhibitor, partial curve] |  |
| c1ccc(Cc2nnc3sc(-c4ccc5c(c4)OCCO5)nn23)cc1 | inconclusive [inhibitor, single point] |  |
| COc1cc(-c2nnc3sc(Cc4ccccc4)nn23)cc(OC)c1OC | inconclusive [inhibitor, single point] |  |
| CCOC(=O)/C(C#N)=C\C=C1C=CN(C)C=C1 |  | inactive: -19.4% |
| Cc1cccc(Nc2nnc(SCC3CCCCO3)s2)c1 (stereo not drawn) | inconclusive [inhibitor, partial curve] |  |
| Cc1nc(-n2nnc3ccccc32)c2c3c(sc2n1)CCCC3 | inconclusive [inhibitor, partial curve] |  |
| CCC1c2ccc(C)n2CCN1C(=O)Nc1ccccc1C(=O)OC (stereo not drawn) | inconclusive [inhibitor, partial curve] |  |
| COc1ccc(CCN2C(=O)CC(N3CCOCC3)C2=O)cc1 (stereo not drawn) |  | inactive: 0.0088% |
| COCCCNC(=O)c1c(N)n(/N=C/c2cccs2)c2nc3ccccc3nc12 | inconclusive [inhibitor, partial curve] |  |
| COc1cc(/C=N/NC(=S)Nc2cccc(S(=O)(=O)N(C)C)c2)cc(OC)c1O |  | inactive: -26.4% |
| c1ccc(-c2oc3ncnc(NCCCN4CCOCC4)c3c2-c2ccccc2)cc1 | inconclusive [inhibitor, partial curve] |  |
| Cc1nn(C(C)(C)C)c(N)c1-c1ccccc1 | active: 28.2 µM |  |

| Structure (SMILES) | Potency | activity change, negative = inhibition |
| --- | --- | --- |
| CCOC(=O)CCCSc1nc(-c2ccc3c(c2)OCO3)cc(C(F)(F)F)c1C#N | inconclusive [inhibitor, partial curve] |  |
| COc1cc(-c2nc(-c3ccccc3)c(-c3cccs3)[nH]2)cc(OC)c1OC | inconclusive [inhibitor, partial curve] |  |
| CC(C)Cc1nc2sc3c(=O)[nH]cnc3c2c2c1CCC2 | inconclusive [inhibitor, partial curve] |  |
| CCNc1ncc2nc(-c3cccc(C#N)c3)c(=O)n(CCC#N)c2n1 |  | inactive: -5.75% |
| COc1ccc(C2NC(C(=O)O)Cc3c2[nH]c2ccccc32)cc1OC (stereo not drawn) |  | inactive: -23.3% |
| O=C(N/N=C/c1c(O)n(-c2ccccc2Cl)c(=O)c2ccccc12)C1COc2ccccc2O1 (stereo not drawn) | inconclusive [inhibitor, partial curve] |  |
| CCOc1ccccc1C(=O)NC(C)c1ccc2c(c1)OCO2 (stereo not drawn) | inconclusive [inhibitor, partial curve] |  |
| CSc1nc(-c2ccccc2)c(-c2ccccc2)[nH]1 | inconclusive [inhibitor, partial curve] |  |
| CCCNc1cc(C)c(C#N)c2nc3ccccc3n12 | inconclusive [inhibitor, partial curve] |  |
| Cc1cccc(C(=O)Nc2scc(CC(C)C)c2C(=O)O)c1 | active: 15.8 µM |  |
| CC1(OC(=O)c2ccc(Cl)nc2)C(=O)C=c2cc(-c3ccsc3)ncc2=C1OC(=O)C1CCCC1 (stereo not drawn) |  | inactive: -7.54% |
| Cc1nn(-c2ccccc2Cl)c(Cl)c1/C=N/Nc1cccc(C(=O)O)c1 | active: 12.6 µM |  |
| COc1ccc(-c2ncccc2OC(=O)C23CC4CC(CC(C4)C2)C3)cc1 | inconclusive [inhibitor, partial curve] |  |
| COc1ccc(/C=C2/C(=O)N=C(N)N2C)cc1OC | inconclusive [inhibitor, single point] |  |
| CC(=O)Nc1nc2n(n1)C(c1ccc(F)cc1)C=C(c1ccccc1)N2 (stereo not drawn) | inconclusive [inhibitor, partial curve] |  |
| Cc1cc(OCc2nn[nH]n2)c2c(C)c(Cc3ccccc3)c(=O)oc2c1 | inconclusive [inhibitor, partial curve] |  |
| Cc1cccc2cc(C(c3nnnn3CC3CCCO3)N3CCOCC3)c(=O)[nH]c12 (stereo not drawn) | inconclusive [inhibitor, partial curve] |  |
| COC(=O)Nc1nnc(-c2ccncc2)s1 | inconclusive [inhibitor, partial curve] |  |
| COCCCNC(=O)c1cc2c(-c3ccc(Cl)cc3)nn(C)c2s1 | inconclusive [inhibitor, partial curve] |  |
| Cc1c(C(=O)NN2CCOCC2)nn(-c2ccc(Cl)cc2Cl)c1-c1ccc(I)cc1 |  | inactive: 6.7% |
| O=C(/C=C/c1ccccc1Cl)NCc1ccco1 | active: 14.1 µM |  |
| CCCCC/C=C\CC(O)/C=C/c1cccc(CC(O)CCCCO)n1 (stereo not drawn) |  | inactive: -6.78% and inactive: -22.7% |
| Cc1[nH]nc2c1C1(CCC3(CC1)OCCO3)C(C#N)=C(N)O2 |  | inactive: -6.94% |
